Measurements reported in PubChem BioAssay AID488969 (Vanderbilt High Throughput Screening Facility, 2010).
Over roughly 110,000 compounds, “z-score” has its median near -0.1; the highest 2% begin near 2. The list shows a part of the results.

target: Metabotropic glutamate receptor 8 (Rattus norvegicus) (UniProt P70579); assay: rat mGluR8 modulators via GIRK flux, primary screen, cell-based, thallium flux, HTS (AID 488969); conditions: HEK293 rat mGluR8, GIRK (G protein-gated inwardly rectifying potassium channel) thallium flux, FluoZin2; at 10 µM; stronger effect = higher value; submaximal glutamate (EC20) added with thallium
UniProt P70579, sequence (P70579 whole entry, looked up): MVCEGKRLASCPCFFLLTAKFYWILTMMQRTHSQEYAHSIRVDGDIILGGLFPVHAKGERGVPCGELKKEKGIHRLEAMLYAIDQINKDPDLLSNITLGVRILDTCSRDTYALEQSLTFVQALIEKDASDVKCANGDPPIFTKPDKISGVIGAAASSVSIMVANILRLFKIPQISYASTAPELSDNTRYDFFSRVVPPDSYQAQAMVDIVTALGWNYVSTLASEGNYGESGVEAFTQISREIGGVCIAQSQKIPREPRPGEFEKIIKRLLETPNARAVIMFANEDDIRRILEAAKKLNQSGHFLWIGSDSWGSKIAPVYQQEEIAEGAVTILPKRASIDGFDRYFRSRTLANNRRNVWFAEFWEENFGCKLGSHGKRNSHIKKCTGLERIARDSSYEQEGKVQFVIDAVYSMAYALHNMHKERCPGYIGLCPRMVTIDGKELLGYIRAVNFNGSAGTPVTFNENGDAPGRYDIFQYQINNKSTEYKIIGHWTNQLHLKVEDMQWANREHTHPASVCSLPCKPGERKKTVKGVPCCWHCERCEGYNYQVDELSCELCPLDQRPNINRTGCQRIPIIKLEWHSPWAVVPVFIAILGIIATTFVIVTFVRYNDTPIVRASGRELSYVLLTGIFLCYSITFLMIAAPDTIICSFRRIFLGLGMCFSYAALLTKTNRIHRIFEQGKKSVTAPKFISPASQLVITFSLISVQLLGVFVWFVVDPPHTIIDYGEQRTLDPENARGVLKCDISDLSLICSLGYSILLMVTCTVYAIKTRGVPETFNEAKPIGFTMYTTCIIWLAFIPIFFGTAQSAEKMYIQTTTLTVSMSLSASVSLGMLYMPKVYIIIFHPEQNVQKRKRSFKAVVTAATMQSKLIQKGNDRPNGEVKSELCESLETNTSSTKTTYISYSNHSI

Structure (SMILES)	z-score
C#CCN1C(=O)C2C(C(=O)NC)C3C=CC2(O3)C1C(=O)NCc1ccc(OC)cc1 (stereo unspecified)	0.849
CC(=O)Nc1nc(N2C(=O)c3ccccc3C2=O)n(-c2ccccc2)n1	0.429
COc1cc2c(cc1NC(=O)c1cc(-c3cccnc3)nc3ccc(C)cc13)oc1ccccc12	-0.138
CCOc1ccc(-c2[nH]nc3c2C(c2cccnc2)C(C#N)=C(N)O3)cc1 (stereo unspecified)	-1.45
COc1cccc(N2CCN(CC(=O)Nc3ccc(SC(F)F)cc3)CC2)c1	-0.228
COc1ccc2nc(NC(=O)c3cc(C)oc3C)sc2c1	0.104
COCCNC(=O)Cn1nc(C(F)(F)F)cc1C	0.0117
Cc1cc(N2C(=O)C3C4C=CC(C4)C3C2=O)ccc1Br (stereo unspecified)	-0.201
O=C(NCCN1CCOCC1)[C@H](Cc1ccccc1)N1C(=O)c2ccccc2C1=O	-0.28
Nc1nnc(SCCN2C(=O)c3ccccc3C2=O)s1	-0.145
O=S(=O)(CCOc1ccccc1)c1nc2ccccc2[nH]1	0.291
COc1ccc(S(=O)(=O)NCc2ccc(C)cc2)cc1	-0.0522
N=c1c(C(=O)NCc2ccco2)cc2c(=O)n3ccccc3nc2n1CC1CCCO1 (stereo unspecified)	0.0706
Cc1ccc(C)c(-n2cc[nH]c2=S)c1	-0.0322
COc1ccc([C@@H]2[C@H]3C(=O)N(c4cccc(C(F)(F)F)c4)C(=O)[C@H]3ON2C)cc1	-0.251
CC12CCC(C(=O)Nc3ccccc3-n3cccc3)(CC1=O)C2(C)C (stereo unspecified)	0.17
COc1cccc(NC(=O)CN(C)C(=O)COc2ccc3ccccc3c2)c1	-0.0111
CC(C)N(CCCNC(=O)CC1Oc2ccccc2NC1=O)Cc1ccccc1 (stereo unspecified)	0.44
O=C(Nc1nnc(CC2=CCCCC2)s1)c1cccs1	-0.848
O=C(O)CSc1sc(=S)sc1SCC(=O)O	-0.442
CN(C)S(=O)(=O)c1cccc(NC(=O)CSc2nc3ccccc3n2-c2ccccc2)c1	-0.45
O=C(CSc1ncn(-c2ccccc2)n1)N1CCN(c2ccccc2)CC1	-0.143
Cc1cc2ccccc2n1CCNC(=O)C(C)(C)C	-0.117

Structure (SMILES)	z-score
CCOC(=O)C(CC)(CC)C(=O)/C=C/c1cccc(Br)c1	0.00139
CCCCN(Cc1cc2cc(OC)ccc2[nH]c1=O)C(=O)c1ccccn1	0.52
COc1cc(/C=C/C(=O)c2c(O)cc(C)oc2=O)cc(OC)c1O	-0.527
Cc1ccc(S(=O)(=O)Nc2nc3ccccc3nc2NCc2ccco2)cc1	0.0124
O=C(OCC(=O)N1CCN(C(=O)c2ccco2)CC1)c1cc(-c2cccc(Br)c2)nc2ccccc12	-0.679
O=C(CCn1c(=O)sc2ccccc21)Nc1ccon1	-0.246
CC(=O)Nc1ccc(Oc2ccc3nc(C)[nH]c3c2)cc1	-0.575
CCNC(=O)N1c2ccc(OCC)cc2C(C)=CC1(C)C	0.273
COc1cccc(-c2cc(C(=O)NCCc3ccccc3)no2)c1	-0.175
COCCSc1nnc(NC(=O)CSCc2ccccc2)s1	0.254
Cc1ccc(C2NC(=O)NC3=C2CCc2ccccc23)cc1 (stereo unspecified)	-0.891
CCc1c(C)nc(SCCOc2ccc(OC)cc2)[nH]c1=O	-0.345
CCOC(=O)Cc1csc(NC(=O)CSc2nnc(-c3ccc(OC)cc3)n2C)n1	0.0425
CCCCCCCCCCS(=O)(=O)N/N=C/c1ccc([N+](=O)[O-])cc1	0.15
CCCC(c1nnnn1Cc1cccs1)N1CCN(c2ccc(OC)cc2)CC1 (stereo unspecified)	-0.302
Cc1occc1C(=O)NNC(=S)Nc1ccccc1C(F)(F)F	0.0614
N#CC1=C(N)OC2=C(CC/C2=C\c2ccccc2)C1c1ccccc1 (stereo unspecified)	-0.2
CCCNC(=O)c1cc(OC)c(OC)cc1[N+](=O)[O-]	-0.0312
COC(=O)C1=CN(C2CC2)C=C(C(=O)OC)C1c1ccccc1OC	-0.00613
Clc1ccccc1-c1nnc2sc(-c3ccncc3)nn12	-0.306
CNC(=O)CCn1nc(-c2ccc(Cl)cc2)c2ccccc2c1=O	-0.0234
Cc1onc(-c2c(Cl)cccc2Cl)c1C(=O)Nc1ccc2c(c1)OCO2	-0.24
Cc1ccccc1NC(=O)CCN1CCCCCC1	0.00359

Structure (SMILES)	z-score
COc1ccc(CN(C(=O)c2ccco2)C2CC(C)N(C)CC2C)cc1 (stereo unspecified)	-0.0429
CCC(=O)Oc1cccc(C(=O)Nc2ccc(-c3nnc(-c4ccco4)o3)cc2)c1	-0.538
O=C(CSc1nc2cc([N+](=O)[O-])ccc2n1-c1ccc(F)cc1)NC1CCS(=O)(=O)C1 (stereo unspecified)	0.00255
O=C(Nc1ccc(Cl)c(Cl)c1)Nc1cc(C(=O)NC2CC2)ccc1Cl	-0.0443
Cc1cc(C)c2c(-n3cccc3)c(C(=O)NNS(=O)(=O)c3ccc(F)cc3)sc2n1	-0.735
O=C(O)c1ccc(CNc2ccccc2C(=O)O)cc1	-0.547
O=S(=O)(c1cc(Cl)ccc1Cl)N1CCNCC1	0.216
O=C1CCCc2c1cc(C(=O)Nc1ccc(Cl)cn1)c(=O)n2-c1ccccc1	-0.114
O=C(CCc1ccc(S(=O)(=O)N2CCOCC2)cc1)OCc1nc2ccccc2s1	1.18
Cc1nc(N2N=C3/C(=C/c4ccc(F)cc4)CCCC3C2c2ccc(F)cc2)sc1C(=O)N(C)C (stereo unspecified)	-0.199
COc1cc(-c2noc(-c3cccc(Cl)c3)n2)cc(OC)c1OC	0.103
Cc1cccc(NC(=O)Cn2c([N+](=O)[O-])cnc2C)c1C	-0.0517
CSc1nc(N(C)CCO)c2sc3nc(-c4ccco4)c4c(c3c2n1)CCC4	-0.00823
CCc1ccc(C(=O)/C=C2\Sc3ccccc3NC2=O)cc1	-0.113
Cc1cccc(C(=O)NN2C(=O)C3C(c4ccccc4)C=CC(c4ccccc4)C3C2=O)c1 (stereo unspecified)	0.291
COc1ccc(Cl)cc1C(=O)NC(=S)Nc1cc(-c2nc3ccccc3[nH]2)ccc1C	-0.287
CCCCNC(=O)C(=O)c1ccccc1NC(C)=O	-0.0152
C=CCSC1=C(C#N)C(c2ccccc2OCC)CC(=O)N1 (stereo unspecified)	-0.93
CC(=O)/C=C1\SC(CC(=O)O)C(=O)N1c1ccccc1 (stereo unspecified)	0.00817
COc1ccc(/C=N/N2CCN(C3c4ccccc4-c4ccccc43)CC2)cc1O	-1.47
Cc1ccc(C(=O)Nc2ccc(C(=O)/C=C/c3cccs3)cc2)cc1	-0.11
O=C(CNc1ccc2ccccc2c1)N/N=C/c1cc2ccccc2nc1Cl	0.0666
CC(C)C(NS(=O)(=O)c1ccc2c(c1)oc(=O)n2C)C(=O)N1CCN(Cc2ccccc2)CC1 (stereo unspecified)	0.093

Structure (SMILES)	z-score
O=C(CCc1ccccc1)NC(=S)Nc1cccc(Br)c1	0.0148
O=C(NCc1cccs1)c1cc(-c2cccs2)on1	-0.882
COc1ccc(S(=O)(=O)/N=C2/C=CC(=O)C(C)=C2C)cc1	0.523
COC(=O)c1[nH]c2cc(OC)ccc2c1NC(=O)CCN1CCN(c2cccc(C)c2C)CC1	0.556
CCOC(=O)N1CCN(C(=O)COc2cccc3c2CCN(Cc2ccccc2C)C3=O)CC1	-0.362
CCN1C(=O)NC(c2cc(Br)ccc2OC)C(C(=O)OC)=C1C (stereo unspecified)	1.19
O=C(OCn1nnc2ccccc2c1=O)c1cccnc1Cl	1.51
O=C(c1ccccc1)N1CCN(C(=O)c2cc3ccccc3o2)CC1	0.163
O=c1oc2cc(O)c(Cl)cc2c2ccccc12	1.75
COC(=O)c1ccc(N=NN2CCOCC2)cc1	-0.0728
O=S(=O)(c1ccc(OCC(O)CN2CCCC2)cc1)N1CCOCC1 (stereo unspecified)	0.233
COc1ccc(OC)c(NC(=O)c2cc3ccccc3o2)c1	-0.411
Cc1nn(C(=O)C(C)N2C(=O)c3ccccc3C2=O)c(C)c1Br (stereo unspecified)	-0.0805
O=S(=O)(c1cccc2ccccc12)n1nnc2ccccc21	0.673
CCC(CC)NC(=O)COC(=O)CCC(=O)c1cccs1	-0.187
O=C(NCCOC(=O)c1ccc(C(=O)OCCNC(=O)c2cccnc2)s1)c1cccnc1	-0.633
CC(C)CC(=O)O/N=C1\C(=O)N(c2ccccc2)c2ccccc21	-0.502
COc1ccc(CCNC(=O)Cn2nnc3ccccc3c2=O)cc1	0.0147
O=S1(=O)CC/C(=N\O)c2ccccc21	-0.0102
CCOc1ccc(CNc2ccc(N3CCCC3)cc2)cc1	0.0796
Cc1cccc(N(CC(=O)NCc2ccc3c(c2)OCO3)C(=O)CCC(=O)Nc2ccccn2)c1C	-0.209
CC1=C(C(=O)Nc2ccccc2C)C(c2ccc(C)o2)n2c(s/c(=C/c3ccccc3)c2=O)=N1 (stereo unspecified)	-0.0189
COc1ccc(OC)c(S(=O)(=O)N2CCN(c3ccccn3)CC2)c1	0.199

Structure (SMILES)	z-score
N#C/C(=C/c1ccc(CNS(=O)(=O)c2ccccc2)o1)C(=O)NCc1ccccc1	-0.354
S=C(NCc1ccco1)N/N=C/c1ccc(Cl)cc1	2.21
Cc1cc(Cl)ccc1OC(C)C(=O)N1CCCN(C(=O)C(C)Oc2ccc(Cl)cc2C)CC1 (stereo unspecified)	-0.111
Cc1ccc(NC(=O)N(Cc2ccco2)Cc2cc3cc(C)cc(C)c3nc2Cl)cc1	-1.38
O=C(CN1CCOc2ccccc21)N1CCC(Cc2ccccc2)CC1	-0.565
Cc1nnc(NC(=O)CSc2ncnc3c2cnn3-c2ccccc2C)s1	-0.117
CC1CCN(c2nc(-c3ccccc3)cc(C(F)(F)F)n2)CC1	-1.53
Cc1occc1C(=O)NNC1=CC(=O)CC(C)(C)C1	-0.23
Cn1nc(SCC(=O)O)sc1=S	0.874
CCOc1ccc(N(CC(=O)NCC2CCCO2)S(=O)(=O)c2ccc(SC)cc2)cc1 (stereo unspecified)	-0.928
O=C(CSc1ncnc2c1oc1ccccc12)Nc1cccc(Cl)c1	-0.596
Cc1ccc(C)c(OCC(=O)Nc2cccc(C(=O)O)c2)c1C	-0.343
COc1ccc(Nc2nc(N)nc(C(F)(F)F)n2)c(OC)c1	0.842
O=C(NNC(=O)c1cccnc1)Nc1ccc([N+](=O)[O-])cc1	0.0611
COc1ccc(NC(=O)C(CCS(C)(=O)=O)NC(C)=O)cc1 (stereo unspecified)	0.701
CC1CN(c2nc(-c3ccccc3)nnc2-c2ccccc2)CC(C)O1 (stereo unspecified)	-0.275
Cc1scc(C(=O)O)c1-c1c(C(=O)O)csc1C	1.02
CSc1nc2c(c(C(F)(F)F)n1)CC(C)CC2 (stereo unspecified)	0.0989
Cc1cc(C)cc(-n2c(C)cc(C=C(C#N)C#N)c2C)c1	-0.194
